Results published in PubChem BioAssay AID686978 (National Center for Advancing Translational Sciences (NCATS), 2013).
Several values for one entry are separate records, joined by “and”; a condition that tells them apart may be missing. Identical values can stand only once. Hit rate of the full screen: of about 420,000 compounds, about 64,000 (15%) were called active. Inconclusive means that the source gave no clear call. Such entries were picked first, then a sample of the others. Calls follow the shape of the dose curve; as a rule, active = well fitted inhibition curve with a large enough effect; inconclusive = small, poorly fitted or top-dose-only effect; inactive = flat fitted curve, though single readings scatter. Potencies of inconclusive entries are doubtful fits and often do not repeat.

Assay: qHTS for Inhibitors of human tyrosyl-DNA phosphodiesterase 1 (TDP1): qHTS in cells in absence of CPT; also: nearly all actives have a fitted effect of over 55% in size
Details: DT40 Tdp1-/- hTDP1 cells, no CPT, ATP luminescence, 48 h; activity change, negative = growth inhibition: at 46.2 µM (top of the series) unless noted
Outline: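 Growth kinetics read by CellTiter-Glo luminescence after ≥48 hr at 37 °C. Cells: DT40 Tdp1-/- stably carrying human TDP1, 400 per well, compound exposure in the absence of CPT (DMSO vehicle).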
% is scaled to controls: 0 for no effect and ±100 for the full control effect; potency is read from the fitted curve at half-maximal effect; tags tell the direction and shape of the fitted curve.

SMILES	Potency	activity change, negative = growth inhibition
CCN(CC)CCCNC(=O)c1ccc2nc(N3CCCCC3)sc2c1	inconclusive: 29.1 µM [inhibitor, single point]	–
Cn1c(CCN2CCCCC2)nc2cc(NS(=O)(=O)c3ccccc3)ccc21	inconclusive: 29.1 µM [inhibitor, partial curve]	–
COc1ccc(CCNC(=O)c2c(O)c3cc(OC)c(OC)cc3[nH]c2=O)cc1OC	inconclusive: 2.59 µM [inhibitor, full curve]	–
Cc1cc(Nc2ccccc2C)nc(-n2nc(C)cc2C)n1	active: 5.17 µM	–
CC(C)CCC[C@](C)(O)c1ccc(C(=O)O)cc1O	inactive	–
O=C(O)CCn1cc(/C=C\C(=O)c2ccc(Cl)cc2)c(-c2cccc(Br)c2)n1	active: 18.4 µM	–
O=c1[nH]nc(CNc2cccc(C(F)(F)F)c2)c2ccccc12	active: 14.6 µM	–
O=C(Nc1ccncc1)c1ccc(NS(=O)(=O)c2cccc(F)c2)cc1	active: 20.6 µM	–
Cc1n[nH]c(C)c1S(=O)(=O)N1CCCC(C(=O)Nc2ccc(Br)cc2)C1 (centres undefined)	active: 16.4 µM	–
CCn1c(SCC(=O)N2CCCC2)nnc1-c1ccc(S(=O)(=O)N2CCCCCC2)cc1	inconclusive: 29.1 µM [inhibitor, single point]	–
COc1ccc(CCNC(=O)c2cc(C)nc3c2c(C)nn3-c2ccc(C)cc2)cc1OC	inconclusive: 18.4 µM [inhibitor, single point]	–
COc1ccc(C(OC(=O)c2ccco2)C(=O)NC(C)(C)C)cc1OC (centres undefined)	inactive	–
CCC(=O)N(Cc1cc2cc(OC)ccc2[nH]c1=O)c1ccc(C)cc1C	inconclusive: 9.2 µM [inhibitor, partial curve]	–
COc1cc2c(cc1NC(=O)CSc1cccc[n+]1[O-])oc1ccccc12	inconclusive: 25.9 µM [inhibitor, single point]	–
COc1cc(OC)c(N(C)S(=O)(=O)c2cccc(C(=O)OCC(=O)N3CCOCC3)c2)cc1Cl	inconclusive: 29.1 µM [inhibitor, single point]	–
CC(C)[C@@H](C(=O)N1CCCC1)N1C(=O)N2CCc3c([nH]c4ccccc34)[C@@]2(C)C1=O	inconclusive: 18.4 µM [inhibitor, single point]	–
O=C(NCCC1=CCCCC1)c1cc(S(=O)(=O)N2CCOCC2)ccc1Cl	inconclusive: 23.1 µM [inhibitor, partial curve]	–
O=C(Cc1ccsc1)N1CCN(S(=O)(=O)c2cc(C(F)(F)F)cc(C(F)(F)F)c2)CC1	inactive	–
COC(Cc1nnc(SC)n1-c1ccccc1)OC	inactive	–
Cc1c(C(=O)N(Cc2cccc(Br)c2)C2CCS(=O)(=O)C2)oc2ccccc12 (centres undefined)	active: 20.6 µM	–
Cc1ccccc1NC(=S)Nc1cccc2cnccc12	inconclusive: 29.1 µM [inhibitor, single point]	–
N#Cc1ccccc1-c1ccc2ncnc(NCc3cccnc3)c2c1	inconclusive: 29.1 µM [inhibitor, single point]	–
N#CCCn1c(=O)cnc2cnc(N3CCOCC3)nc21	inactive	–

SMILES	Potency	activity change, negative = growth inhibition
CN(C)C(CNC(=O)c1cc(-c2ccco2)nc2ccccc12)c1ccccc1 (centres undefined)	inactive	–
CCOc1ccc(N(CC(=O)NC2CCCC2)C(=O)Cn2nnc(-c3ccc(C)o3)n2)cc1	inconclusive: 29.1 µM [inhibitor, single point]	–
CCCC[C@H]1COCCS(=O)(=O)N1Cc1ccc(Br)cc1	inconclusive: 35.5 µM [inhibitor, single point] and inconclusive: 29.1 µM [inhibitor, single point]	–
O=C(CC12CC3CC(CC(C3)C1)C2)NCc1ccncc1	–	inconclusive: -32% [inhibitor]
COc1ccc(N2CCN(S(=O)(=O)CCNC(=O)C3CC(=O)N(c4ccccc4)C3)CC2)cc1 (centres undefined)	inactive	–
CC(=O)c1c(C)oc2c1C(=O)c1ccccc1C2=O	active: 7.31 µM	–
CCCOc1ccc(CN(C(=O)c2cc(=O)c3ccc(C)cc3o2)C2CCS(=O)(=O)C2)cc1 (centres undefined)	inconclusive: 25.9 µM [inhibitor, single point]	–
COc1ccc(Cl)cc1NC(=O)CCS(=O)(=O)c1ccc(C)cc1	inactive	–
C#CCOCCOCCOCCNc1nc(N2CCN(C(=O)[C@H](CCC(=O)O)n3cc(C(N)CC(C)C)nn3)CC2)nc(N2CCN(C(=O)[C@H](CCC(=O)O)n3cc(C(N)[C@H](C)CC)nn3)CC2)n1 (some centres undefined)	inactive	–
COCCNC(=O)c1onc(CSc2nc3ccccc3[nH]2)c1C(=O)NCCOC	inconclusive: 18.4 µM [inhibitor, single point]	–
O=C1CN(C(=O)COC(=O)c2c(F)cccc2Cl)c2ccccc2N1	inconclusive: 18.4 µM [inhibitor, single point]	–
Cc1cc(Cl)ccc1OCC(=O)NNC(=O)c1cnccn1	active: 23.1 µM	–
O=C(Nc1ccc(Cc2ccncc2)cc1)c1ccc(Br)o1	inactive	–
CN(C)CC[C@@H](c1ccc(Br)cc1)c1ccccn1	inactive	–
C=C(C)/C=N/NC(=S)Nc1ccc(S(=O)(=O)N2CCOCC2)cc1	inactive	–
Cc1nc2sc3c(O)cc(=O)[nH]c3c2c(C)c1C	inconclusive: 23.1 µM [inhibitor, single point]	–
NC(=S)N/N=C/c1ccc(-c2ccccc2)o1	inconclusive: 20.6 µM [inhibitor, single point]	–
CC1=CC(C)(C)[N+](C)(C)c2ccc(C)cc21	active: 18.4 µM	–
CC(C)c1ccc(C2OCC(C)([N+](=O)[O-])CO2)cc1 (centres undefined)	–	inconclusive: -34.8% [inhibitor]
COc1cccc(C(=O)CC2(O)C(=O)Nc3ccc(Cl)cc32)c1 (centres undefined)	inconclusive: 20.6 µM [inhibitor, single point]	–
O=C(/C=C/c1ccc2ccccc2n1)c1cc(Cl)ccc1O	inconclusive: 16.4 µM [inhibitor, partial curve, poor fit]	–
COc1cc(C)ccc1OCCSc1nc(-c2cccc(C)c2)nc2cc(=O)[nH]n12	active: 20.6 µM	–
COc1ccc(-c2c(C(C)=O)c(C)n(C)c2C)cc1	inconclusive: 20.6 µM [inhibitor, single point]	–

SMILES	Potency	activity change, negative = growth inhibition
Cc1cccnc1NC(=O)c1nn(C)c2c1CS(=O)(=O)c1ccccc1-2	inactive	–
Cc1ccc2nc(-c3c[nH]c4ccccc34)c(Nc3ccccc3C)n2c1	active: 3.26 µM	–
CCCCNC(=O)CSc1nc(COc2ccccc2)nc2ccccc12	inconclusive: 29.1 µM [inhibitor, single point]	–
Cc1ccc(S(=O)(=O)N2CCC3(CC2)CC(=O)c2ccccc2O3)cc1	inconclusive: 18.4 µM [inhibitor, partial curve, poor fit]	–
N#Cc1cnc2nc1NCCCCCCC2	–	inconclusive: -31.7% [inhibitor]
CC1(Cc2ccc(Cl)c(Cl)c2)C(=O)Nc2c(Cl)ccc(Cl)c21 (centres undefined)	inconclusive: 20.6 µM [inhibitor, single point]	–
COc1ccc(N2CC(C)Cn3c2nc2c3c(=O)n(CCc3ccccc3)c(=O)n2C)cc1 (centres undefined)	inconclusive: 6.51 µM [inhibitor, single point]	–
C#CCOCCOCCOCCNc1nc(N2CCN(C(=O)C([C@@H](C)CC)n3cc(C(N)Cc4ccc(O)cc4)nn3)CC2)nc(N2CCN(C(=O)[C@H](CCC(=O)O)n3cc(C(N)Cc4ccc(O)cc4)nn3)CC2)n1 (some centres undefined)	inactive	–
Cc1ccc(/C=C/C(=O)Nc2ccc(S(N)(=O)=O)cc2)o1	inconclusive: 13 µM [inhibitor, partial curve]	–
CCCCCCCCCCCCCCCCOCCOCCOCCOCCOCCOCCOCCOCCOCCOCCOCCOCCOCCOCCOCCOCCOCCOCCOCCOCCO	active: 7.5 µM	–
Cc1ccc(C(=O)NCCc2nnc3n2CCN(C(=O)c2ccnc(Cl)c2)CC3)cc1	inactive	–
Cc1cccc(CNc2ccc(C(CC(N)=O)NC(=O)Cc3cccc4ccccc34)cc2[N+](=O)[O-])c1 (centres undefined)	inconclusive: 29.1 µM [inhibitor, single point]	–
COCCNC(=O)c1nc2c(nnn2Cc2cc(C)ccc2C)c(=O)[nH]1	inconclusive: 1.84 µM [inhibitor, partial curve, poor fit]	–
COc1cc(-c2cc3nc4ccccc4n3c(N)c2C#N)cc(OC)c1OC	inconclusive: 9.2 µM [inhibitor, partial curve]	–
CC(=O)c1cc(F)c(N2CCCC2)cc1C	active: 20.6 µM	–
CC(C)OC(=O)c1cccnc1N1CCN(c2ccc(F)cc2)CC1	inconclusive: 16.4 µM [inhibitor, partial curve]	–
CS(=O)(=O)c1cccc(C(=O)OCCCC(=O)c2ccccc2)c1	inconclusive: 29.1 µM [inhibitor, single point]	–
CCOC(=O)Cc1csc(NC(=O)c2ccc(S(=O)(=O)N3CCCC3)cc2)n1	inconclusive: 29.1 µM [inhibitor, single point]	–
COC(=O)c1ccc(=O)c2nc3/c(=C/O)c(O)cc(=O)c3[nH]c12	inconclusive: 29.1 µM [inhibitor, single point]	–
CCOC(=O)c1sc2c(c1C)c(=O)n(Cc1ccccc1)c(=O)n2CCN(C)C	inactive	–
O=C1NC(=O)/C(=C/c2ccc(-c3cccc([N+](=O)[O-])c3)o2)S1	inconclusive: 29.1 µM [inhibitor, single point]	–
CCC(=O)N1CCN(c2ccnc3cc(Cl)ccc23)CC1	inconclusive: 25.9 µM [inhibitor, single point]	–
Cc1nn(C(C)C(=O)NC(C)CCc2ccccc2)c(=O)c2cc3occc3n12 (centres undefined)	inactive	–
